This assay relates to OVCAR8. Put plainly: cell count relative to DMSO vehicle (fold change); OVCAR8 is a high-grade serous ovarian cancer line and CX-5461 an RNA polymerase I inhibitor; higher = more surviving senescent cells (less killing). The note with it: senescence inducer: CX-5461 3 µM 48 h, then 6 d recovery (CX senescent), exposure time 24 h.

Counter-ions that a name gives are not always drawn. ± gives the standard deviation of the averaged measurements. The list shows a part of the results.

For the molecule `O=C(CCCCCCC(=O)Nc1cccnc1)NO` [Pyroxamide], the cell count runs as follows: (compound dose 1 µM) 1.14 ± 0.23; (compound dose 5 µM) 1.25 ± 0.029.
For `CCc1ccc(CCOc2ccc(CC3SC(=O)NC3=O)cc2)nc1` (centres undefined), the cell count was determined as 1.04 ± 0.053 (compound dose 1 µM) and 0.948 ± 0.084 (compound dose 5 µM).
The matching figures for `CN(C)c1nc2c(Br)c(Br)c(Br)c(Br)c2n1CC(=O)O`: 1.15 ± 0.11 and 1.16 ± 0.19.
Take `CCC(C)(C)C(=O)C(=O)N1CCCC[C@H]1C(=O)O[C@H](CCc1ccc(OC)c(OC)c1)c1cccc(NC(=O)CCC(=O)O)c1` [SLF-amido-C2-COOH]: the cell count is 1.15 ± 0.18 (compound dose 1 µM) and 1.22 ± 0.45 (compound dose 5 µM).
Consider `O=C(O)CCc1nc(-c2ccccc2)c(-c2ccccc2)o1`, for which the cell count is 1.1 ± 0.15 (compound dose 1 µM) and 1.18 ± 0.24 (compound dose 5 µM).
As to `CN(CCCCCCNc1ccnc2cc(Cl)ccc12)CCCCCCNc1ccnc2cc(Cl)ccc12`, the cell count (compound dose 1 µM) came to 0.954 ± 0.0071 and the cell count (compound dose 5 µM) is 0.118 ± 0.005.
Consider `O=C(NOCC1CC1)c1ccc(F)c(F)c1Nc1ccc(I)cc1Cl`, for which the cell count was found to be 1.25 ± 0.11 (compound dose 1 µM) and 1.08 ± 0.019 (compound dose 5 µM).
For the molecule `Nc1nc(F)nc2c1ncn2[C@@H]1O[C@H](COP(=O)(O)O)[C@@H](O)[C@@H]1O` [Fludarabine (phosphate)], the cell count runs as follows: (compound dose 1 µM) 1.11 ± 0.45; (compound dose 5 µM) 1.23 ± 0.46.
Regarding `COc1cc(O)c2c(=O)cc(-c3ccc(OC)c(-c4c(O)cc(O)c5c(=O)cc(-c6ccc(O)cc6)oc45)c3)oc2c1` [Ginkgetin], the cell count was 1.12 ± 0.019 (compound dose 1 µM) and 1.07 ± 0.03 (compound dose 5 µM).
On to `CC1(C)CCC(c2ccc(Cl)cc2)=C(CN2CCN(c3ccc(C(=O)NS(=O)(=O)c4ccc(N[C@H](CCN5CCOCC5)CSc5ccccc5)c(S(=O)(=O)C(F)(F)F)c4)cc3)CC2)C1` [Navitoclax], for which the cell count (compound dose 1 µM) turned out to be 0.465 ± 0.041 and the cell count (compound dose 5 µM) was 0.425 ± 0.048.
The corresponding values for `CC(C)C[C@H](NC(=O)[C@H](Cc1ccccc1)NC(=O)c1cnccn1)B(O)O` [Bortezomib] are 1.14 ± 0.037 and 0.442 ± 0.043.
Consider `COc1ccc(-c2coc3cc(O)ccc3c2=O)cc1`, for which the cell count was determined as 1.03 ± 0.015 (compound dose 1 µM) and 1.12 ± 0.023 (compound dose 5 µM).
`COc1ncc(-c2nc3c(n2C(C)C)[C@H](c2ccc(Cl)cc2)N(c2cc(Cl)cn(C)c2=O)C3=O)c(OC)n1` [Siremadlin]: the cell count is, setting by setting: (compound dose 1 µM) 1.05 ± 0.014; (compound dose 5 µM) 1.18 ± 0.097.
The corresponding values for `CCCCc1ccc(NC(C)=O)c(C)c1` are 0.843 ± 0.018 and 1.11 ± 0.28.
With `O=C1NC(=O)/C(=C\c2cccc(C(F)(F)F)c2)S1`, the cell count runs as follows: (compound dose 1 µM) 1.09 ± 0.38; (compound dose 5 µM) 1.12 ± 0.17.
The molecule `O=C1/C(=C/c2cccs2)CC/C1=C\c1cccs1` displayed a cell count (compound dose 1 µM) of 1.18 ± 0.22 and a cell count (compound dose 5 µM) of 1.13 ± 0.17.
The corresponding values for `C[N+](C)(C)CCOP(=O)(O)OP(=O)([O-])OC[C@H]1O[C@@H](n2ccc(N)nc2=O)[C@H](O)[C@@H]1O` are 1.16 ± 0.18 and 0.991 ± 0.054.
For `CC1(C)C[C@@H](O)[C@]2(C)CC[C@]3(C)C(=CC[C@@H]4[C@@]5(C)CC[C@H](O)[C@](C)(CO)[C@@H]5CC[C@]43C)[C@@H]2C1` [Soyasapogenol B], the cell count by setting is: (compound dose 1 µM) 1.1 ± 0.15; (compound dose 5 µM) 1.15 ± 0.16.
`C[C@@H]1O[C@@H](O[C@H]2[C@H](O[C@H]3[C@H](O[C@H]4CC[C@]5(C)[C@H]6CC=C7[C@@H]8CC(C)(C)CC[C@]8(C(=O)O)CC[C@@]7(C)[C@]6(C)CC[C@H]5C4(C)C)OC[C@H](O)[C@@H]3O)O[C@H](CO)[C@@H](O)[C@@H]2O)[C@H](O)[C@H](O)[C@H]1O` [Raddeanin A]: the cell count reads like this: (compound dose 1 µM) 1.4 ± 0.37; (compound dose 5 µM) 0.008 ± 0.0014.
The corresponding values for `CCCCCN(C)CCC(O)(P(=O)(O)O)P(=O)(O)O` are 1.06 ± 0.097 and 1.19 ± 0.28.
As for `CCS(=O)(=O)Nc1ccc(Oc2ccc(F)cc2F)c(-c2cn(C)c(=O)c3[nH]ccc23)c1` [Mivebresib], the cell count was determined as 1.071 ± 0.0064 (compound dose 1 µM) and 1.03 ± 0.061 (compound dose 5 µM).
Regarding `Oc1ccc2c(c1)OC[C@]1(O)Cc3cc(O)c(O)cc3[C@H]21` [Brazilin], the cell count was 1.07 ± 0.11 (compound dose 1 µM) and 1.044 ± 0.0028 (compound dose 5 µM).
In the case of `O=c1ccc2cc3ccoc3cc2o1` [Psoralen], the cell count runs as follows: (compound dose 1 µM) 1.1 ± 0.14; (compound dose 5 µM) 0.929 ± 0.1.
In the case of `C=C(C)[C@@H]1CC[C@]2(C(=O)O)CC[C@]3(C)[C@H](CC[C@@H]4[C@@]5(C)CC[C@H](O)C(C)(C)[C@@H]5CC[C@]43C)[C@@H]12` [Betulinic acid], the cell count runs as follows: (compound dose 1 µM) 1.13 ± 0.26; (compound dose 5 µM) 1.1 ± 0.19.
Regarding `CONC(=O)c1ccccc1Nc1cc(Nc2cc(C)nn2C(C)C)ncc1Cl`, the cell count by setting is: (compound dose 1 µM) 1.2 ± 0.016; (compound dose 5 µM) 1.26 ± 0.15.
For `C=CCc1ccc(O)c(OC)c1`, the cell count (compound dose 1 µM) turned out to be 1.11 ± 0.068 and the cell count (compound dose 5 µM) was 1.08 ± 0.11.
Turning to `OC[C@@H](O)[C@@H](O)[C@H](O)[C@H](O)CO`, the cell count is, setting by setting: (compound dose 1 µM) 1.04 ± 0.11; (compound dose 5 µM) 1.05 ± 0.092.
Turning to `Oc1ccc(C2CNCCc3c2cc(O)c(O)c3Cl)cc1` (centres undefined), the cell count by setting is: (compound dose 1 µM) 1.13 ± 0.074; (compound dose 5 µM) 0.977 ± 0.089.
Consider `CC(C(=O)O)c1cccc(Oc2ccccc2)c1` (centres undefined) [Fenoprofen (Calcium hydrate)], for which the cell count is, setting by setting: (compound dose 1 µM) 1.17 ± 0.1; (compound dose 5 µM) 1.15 ± 0.25.
Consider `O=C1NC(=O)/C(=C/c2ccc3nccc(-c4ccncc4)c3c2)S1`, for which the cell count by setting is: (compound dose 1 µM) 0.967 ± 0.2; (compound dose 5 µM) 0.848 ± 0.12.
On to `O=C1NC(=O)C(c2ccccc2[N+](=O)[O-])=C1Nc1ccc(O)c(Cl)c1`, for which the cell count is, setting by setting: (compound dose 1 µM) 1.25 ± 0.2; (compound dose 5 µM) 1.21 ± 0.25.
Consider `OCCN1CCN(CC/C=C2/c3ccccc3Sc3ccc(C(F)(F)F)cc32)CC1` [Flupentixol dihydrochloride], for which the cell count was determined as 1.12 ± 0.13 (compound dose 1 µM) and 1.137 ± 0.0035 (compound dose 5 µM).

These data come from the supplement of paper PMC12462457.
